In the supplement of paper PMC3334620:
The full ranking holds about 33,000 sequences; the median of “E-score (-0.5 to 0.5)” is about -0.054, and the highest 2% start at about 0.39. The list shows a part of the results.

biological target: Ylr278c (UniProt Q05854); experiment: PBM E-score (8-mer binding enrichment) (E-score (-0.5 to 0.5)); higher = stronger / more preferred TF binding; most listed sequences are background and not binding sites; settings: protein concentration: 200 nM; construct: GST-DNA-binding domain
How it was run: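 Masliner-normalised scans of fluorescent anti-GST signal were the basis for scoring. That signal came from GST-tagged yeast transcription factors applied at about 100-200 nM to double-stranded universal all-10-mer Agilent arrays on fresh or once-stripped slides. Each ungapped eight-base word, pooled with its reverse complement, received an E-score from the Universal PBM Analysis Suite.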

| Sequence | PBM E-score |
| --- | --- |
| ACCTCCTG | -0.253 |
| ACCCTGGG | -0.153 |
| GCGATCCA | -0.0934 |
| AGACGCCA | -0.25 |
| TACCTTCA | -0.22 |
| CCAGCCAG | -0.234 |
| AGATATTA | -0.0403 |
| CATGATCA | -0.112 |
| TAAGAGTA | -0.0846 |
| CCAGAGGC | -0.238 |
| CTGCATTA | -0.0765 |
| GGACTGGA | -0.0465 |
| AGGCTATA | -0.233 |
| CCGCTTAA | 0.183 |
| ACCTGGGG | -0.205 |
| CGACGCCC | 0.226 |
| AAAGAGTC | -0.0444 |
| AAGTGTCT | -0.164 |
| ATTTACAG | -0.123 |
| ACAGATTC | -0.0942 |
| GCACCGCA | -0.0796 |
| TGTCGACA | -0.252 |
| AGGTGAAG | -0.202 |
| GTACATAA | -0.0326 |
| GCCGCCCC | 0.282 |

| Sequence | PBM E-score |
| --- | --- |
| ACTGCAGC | -0.0727 |
| ATCGGCAA | 0.248 |
| ACCGCCAC | 0.0241 |
| AAGGAATT | 0.00527 |
| CTGCTGCC | -0.133 |
| GGTAGACA | -0.018 |
| ATCTCTTA | 0.019 |
| AGAGTCCC | -0.00816 |
| ATGTGCAC | -0.0408 |
| AAGCAGCT | -0.121 |
| AATAGAGA | -0.139 |
| GCATAGAA | -0.0675 |
| CAAGCGAG | -0.0181 |
| CATCCCCA | -0.109 |
| ACGAACGG | 0.197 |
| GTGGAGTA | -0.135 |
| ACGTCTCG | -0.161 |
| CATTAATA | 0.0436 |
| AACCGTGG | -0.0901 |
| ACCCAGTA | -0.208 |
| CCGCGCGC | 0.28 |
| CAACTGGA | -0.0975 |
| AAGAATTG | -0.0343 |
| GATGCGCC | 0.0693 |
| GACACACC | 0.0326 |

| Sequence | PBM E-score |
| --- | --- |
| TGAGCCAA | -0.258 |
| CTATGCAC | -0.205 |
| ATGGGAGC | 0.0653 |
| TAGCCATA | -0.329 |
| ACGCTAGC | -0.171 |
| AGAATTAC | 0.094 |
| GCTAGAAA | 0.0266 |
| CTCACACA | -0.195 |
| GAATGTCA | -0.0849 |
| CCAGACCA | -0.252 |
| TGACACAA | -0.0829 |
| AATGTGTC | -0.0466 |
| CCATCCCA | -0.129 |
| CGTTCTCA | -0.234 |
| CCCTTAGA | -0.393 |
| CAACCATC | -0.0633 |
| GGTTCGAC | -0.153 |
| ACTACGCA | -0.127 |
| CAGAGAGC | -0.184 |
| AACGGGCC | 0.00373 |
| AGTGCATA | -0.184 |
| ATCTCCCC | -0.00596 |
| ACAAATTA | 0.0532 |
| ATGGGTCA | -0.232 |
| CCCGACAC | 0.252 |

| Sequence | PBM E-score |
| --- | --- |
| CAAGTTGG | -0.036 |
| ATCCCATA | 0.0702 |
| ATACTGCG | 0.0328 |
| AGTCACAA | -0.201 |
| CATGGTCC | -0.0406 |
| CATGCGGC | -0.00255 |
| ATAGCAAA | -0.221 |
| GTATGAGA | 0.0106 |
| GCAAGCCC | 0.0968 |
| AAGCGCGG | 0.155 |
| ATGAGGAA | 0.0172 |
| CCAAGCGA | -0.245 |
| CCTTAATA | -0.107 |
| GATGCATA | -0.0948 |
| ACTGGTGA | -0.282 |
| CCCCCCCA | -0.309 |
| CACTCTCC | 0.183 |
| CAAGATAG | -0.213 |
| GGTACAGA | -0.022 |
| CATCCTGC | -0.183 |
| GCGATTAC | 0.0139 |
| GACCGCGA | 0.193 |
| CCACTCAC | -0.098 |
| GCGTGAGA | -0.0361 |
| ATTTTTGC | 0.00321 |

| Sequence | PBM E-score |
| --- | --- |
| AACCTTTC | -0.0569 |
| ATTGTCGG | 0.306 |
| CGGAAAAG | 0.373 |
| AACCAGCA | -0.144 |
| CTAGAGCC | -0.118 |
| CCACAACC | 0.00674 |
| AAGAGAGT | -0.0766 |
| AGCACGAG | -0.0826 |
| GGTATCAA | 0.054 |
| CGAGAACG | 0.232 |
| AGGGATCC | 0.183 |
| ATGTCGCG | 0.101 |
| GCGAGACC | -0.173 |
| ACTTGTTC | -0.121 |
| GCTGACCA | -0.0869 |
| GAAGAACC | 0.0353 |
| AATGAATT | -0.0288 |
| CCTCCCGC | 0.0967 |
| ACAGGACC | -0.0185 |
| AGCATCCC | -0.0289 |
| CACATGGG | -0.0634 |
| AGACCGAT | 0.163 |
| GTTGGGGA | 0.0498 |
| AGTGGGTA | 0.11 |
| CACGCAGA | -0.109 |

| Sequence | PBM E-score |
| --- | --- |
| TATGGGAA | -0.171 |
| AAAAACGA | -0.117 |
| ACTACAAC | 0.021 |
| TCTCCGCA | 0.407 |
| CAGGTACC | -0.134 |
| AGTCTGCG | -0.278 |
| GAAGCGTC | -0.17 |
| GAACGGGC | -0.0384 |
| CCTCCTCG | -0.206 |
| CACGGCTC | -0.00207 |
| GCGTACAA | -0.249 |
| ACTATGCG | 0.0962 |
| CTCGCATC | -0.0684 |
| AGCATGAA | -0.0789 |
| ATGACCTC | -0.154 |
| AATGGTCT | 0.0209 |
| ACTCAGCG | -0.0317 |
| GGGCAAGA | 0.138 |
| GATTAGAA | -0.0156 |
| CTTCAGAC | -0.158 |
| CTATGTTA | 0.107 |
| CCGTTTAC | 0.163 |
| CATGTACA | -0.261 |
| AGGGGAAA | -0.0865 |
| AACTGCGC | 0.111 |

| Sequence | PBM E-score |
| --- | --- |
| CCGTGACG | 0.0727 |
| AATTGGCG | 0.0426 |
| GTAGCCAC | -0.28 |
| GATGATGA | -0.00455 |
| AAGATTTG | -0.163 |
| CAACGTCC | 0.185 |
| AAGATTGT | -0.0718 |
| ATTACTCC | 0.239 |
| GAGTAGGA | 0.0925 |
| CAACTAGA | -0.179 |
| AAGATATC | -0.0284 |
| CTATTTGC | -0.0712 |
| CCTCGTTA | -0.324 |
| GCGGCTTA | 0.107 |
| GTCAAATA | -0.129 |
| CTTATATA | -0.0613 |
| CGCACTTC | 0.141 |
| AAATTACA | 0.0234 |
| GCCGAGAA | 0.259 |
| AGTTTCTA | -0.214 |
| CTTTCAGC | 0.157 |
| TCGATTAA | 0.0061 |
